Molecular target: herpes simplex virus type 1 induced DNA polymerase (Human herpesvirus 1, UniProt P04293)
Test: Inhibition of herpes simplex virus type 1 induced DNA polymerase
Format: biochemical

## O=C(O)P(=O)(O)O [phosphonoformic acid]
5 μM
  inhibition at 5 µM: 15%
20 μM
  inhibition at 20 µM: 43%
500 μM
  inhibition at 500 µM: 90%
